Consider 137 sequences from PMC5515408.

Some of the results follow. At the low end of the ranking the order means little.

For this assay, the system named is MYC (p64) + MAX (p21), in MYC:MAX. As to the kind of experiment: protein-binding microarray (anti-MAX antibody). Particulars: PBM: 15 mM Tris-HCl pH 7.5, 100 mM KCl, 0.075% NP40, 7.5 mM beta-mercaptoethanol, 375 ng/ul BSA, 8 ng/ul poly(dA-dT):(dA-dT), 550 ng complex, 60 min, room …; high values mean tight binding; double strand, one strand shown; sequences stand for … in CCGGC…TTAATAGCTAAGATTACTATATCGACG
As to TGACCATCAGTA, the binding signal (log2 normalized fluorescence) is 0.276.

TGACGGAGAGTA: the binding signal (log2 normalized fluorescence) was -0.141. To TGAGGAAGCGTA belongs -0.0931; to TGAAGCGTTGTA, 0.397; to TGAGGAGAAGTA, -0.287. Take TGACACCCGGTA: the binding signal (log2 normalized fluorescence) came to 0.337. With TGAATTGCGGTA the figure was 0.00543; with TGACTGAGGGTA, -0.0498; with TGACCAAAAGTA, 0.0878.

As for TAACACGTCGTA, the binding signal (log2 normalized fluorescence) was 0.497. To TGACGTTTCGTA belongs 0.178; to TGATCCTCGGTA, -0.0203; to TGAAGCTCCGTA, -0.0343. With TGAATGTTAGTA, the binding signal (log2 normalized fluorescence) worked out at 0.3.

With TGATGAAATGTA, the binding signal (log2 normalized fluorescence) is 0.0917.

On to TGATATAGCGTA, for which the binding signal (log2 normalized fluorescence) was -0.206. With TGAGTTCGCGTA the figure was -0.0452; with TGATTCGTGGTA, 0.292; with TGATCAGACGTA, 0.0319. TGATTAAACGTA: the binding signal (log2 normalized fluorescence) was -0.169. Take TGACACGTGCCC: the binding signal (log2 normalized fluorescence) is 0.7. Take AGACTCGTGGTA: the binding signal (log2 normalized fluorescence) turned out to be 0.67. To TGACTCTAGGTA belongs 0.131; to TGACCCACAGTA, 0.0783; to TGACACGGCGTA, 0.188. With TGAACGTAAGTA the figure was -0.107.

On to TGACATGTGTTA, for which the binding signal (log2 normalized fluorescence) was 0.626. With TGTCACGTGCTA, the binding signal (log2 normalized fluorescence) turned out to be 0.591. With TGATGGTTTGTA the figure was 0.255. To TGCCACGTGTTA belongs 0.969; to TGAGTCTGCGTA, 0.0859. On to TGAGGGGATGTA, for which the binding signal (log2 normalized fluorescence) is 0.369. With TGATAGATCGTA the figure was -0.162. To TGATTTGCCGTA belongs -0.208.

With TGAGCCTTGGTA, the binding signal (log2 normalized fluorescence) is -0.0809.

Consider TGAATTAGAGTA, for which the binding signal (log2 normalized fluorescence) is -0.143. Consider TGATGAGCTGTA, for which the binding signal (log2 normalized fluorescence) is -0.135.

As for TGAACGTCAGTA, the binding signal (log2 normalized fluorescence) was found to be 0.168. To TGAAAAAGCGTA belongs 0.155; to TGATCTCCCGTA, -0.0606; to TGATAGATTGTA, -0.194. Take TGACTCTTGGTA: the binding signal (log2 normalized fluorescence) stood at 0.16. To TGAGGATGGGTA belongs -0.0151; to TGAGTGGAGGTA, 0.0432.

With TGAGGTGTCGTA, the binding signal (log2 normalized fluorescence) was 0.0225. To TGAAGTCCCGTA belongs -0.0586; to TGACACCCAGTA, 0.219; to TGATTCTCGGTA, -0.129. For TGACGATATGTA, the binding signal (log2 normalized fluorescence) is -0.127. For TGAGTTCGAGTA, the binding signal (log2 normalized fluorescence) is -0.115. With CGACCCGTGCTA the figure was 0.496.

In the case of TGAATTATGGTA, the binding signal (log2 normalized fluorescence) was determined as 0.00718.

Turning to TGACGTCCGGTA, the binding signal (log2 normalized fluorescence) amounted to 0.167.

For the sequence TGACTTACAGTA, the binding signal (log2 normalized fluorescence) is -0.0187. As to TGAGTTGGTGTA, the binding signal (log2 normalized fluorescence) was -0.00306. With TGTATCGTGGTA the figure was 0.398; with TGAAAGCGGGTA, 0.0838; with TGATGCTTCGTA, 0.162. With TGATTGTATGTA the figure was 0.0121; with TGAAAATACGTA, 0.159.

Consider TGAACCGTAGTA, for which the binding signal (log2 normalized fluorescence) is -0.187. With TGACACGTGTGC the figure was 0.818. To TGAGGGGCAGTA belongs 0.394; to TGAAATGAAGTA, 0.0276; to TGAATCAGTGTA, 0.0631. Consider TGACCCCTTGTA, for which the binding signal (log2 normalized fluorescence) is -0.0765. For the sequence TGAACGGCCGTA, the binding signal (log2 normalized fluorescence) was determined as 0.0168. On to TGACAACGAGTA, for which the binding signal (log2 normalized fluorescence) was 0.257.

TGAACGGGTGTA: the binding signal (log2 normalized fluorescence) is -0.0535. With AAACACGTGGTA the figure was 1.02; with TGAAGAGCGGTA, 0.13. To TGACGCGGTGTA belongs 0.156; to TGAAGGGTCGTA, 0.0463; to TGACCAAGCGTA, 0.126. With TGATACGGGGTA the figure was 0.136; with TGAGTGGGAGTA, 0.0653. In the case of TGATCAGAAGTA, the binding signal (log2 normalized fluorescence) came to 0.197. To TGAGCCCCGGTA belongs -0.0235; to TGAGTACCTGTA, 0.076. To TGAGACATGGTA belongs 0.298. TGAAGTAATGTA: the binding signal (log2 normalized fluorescence) amounted to 0.118. With TGAACGCGGGTA the figure was 0.201; with TGACGGAGCGTA, 0.0737. With TGACACGTCACA the figure was 0.51; with TGATATACTGTA, -0.0699; with TGAACTACTGTA, 0.188. To TGACACGTTCAA belongs 0.563. Regarding TGAGTCACTGTA, the binding signal (log2 normalized fluorescence) was 0.221. With TGAGGCTTGGTA the figure was -0.0912; with TGAGACTGAGTA, -0.128. To TGAATAATGGTA belongs 0.0389; to TGAGCGCACGTA, 0.294. With TGAATCCAAGTA the figure was -0.13; with TGACACGGTCTA, 0.332; with TGATGCCCTGTA, -0.00115. With TTCGCTCTTTGA, the binding signal (log2 normalized fluorescence) is -0.219. With TGACACATGGTG the figure was 0.748. As to TGATATACGGTA, the binding signal (log2 normalized fluorescence) is -0.026. With TGGTCCGTGGTA the figure was -0.0337; with TGAAATACGGTA, 0.102. With TGAATTGTAGTA the figure was 0.0486.

Regarding TGACCTAGGGTA, the binding signal (log2 normalized fluorescence) was -0.0467.

Consider TGACTCCACGTA, for which the binding signal (log2 normalized fluorescence) worked out at 0.225. Regarding AGAGACGTGGTA, the binding signal (log2 normalized fluorescence) was found to be 0.387. With TGAGCGAGGGTA the figure was 0.223; with TGATTATTTGTA, -0.0994; with TGAGTGTATGTA, 0.205.

With TCACCCGTGGTA, the binding signal (log2 normalized fluorescence) is 0.412. To TGAAAGAATGTA belongs 0.0901; to TGAGTGCTAGTA, 0.123. With TGATGGGGAGTA the figure was 0.296; with TGAAACCACGTA, 0.379; with GATCACGTGGTA, 0.946. Consider TGATGACGAGTA, for which the binding signal (log2 normalized fluorescence) was -0.00261.

Consider TGATTCGCTGTA, for which the binding signal (log2 normalized fluorescence) was 0.0417. With TGACCTAACGTA the figure was 0.0453; with TAACGCGTGGTA, 0.783. With CTAGTCTAGAAT the figure was -0.374.

TGAGAGTATGTA: the binding signal (log2 normalized fluorescence) amounted to 0.132.

TGAAACGGGGTC: the binding signal (log2 normalized fluorescence) is 0.201. TGACTAGACGTA: the binding signal (log2 normalized fluorescence) was -0.0767. To TGAAGGGTGGTA belongs 0.18. With TGAGCCGCTGTA the figure was 0.0565. Take TGATCCGGGGTA: the binding signal (log2 normalized fluorescence) was -0.0173. With TGATCATCCGTA the figure was 0.104.

Consider TGACTGCGCGTA, for which the binding signal (log2 normalized fluorescence) came to 0.301. With TGAACGCAGGTA the figure was 0.126; with GTACACGTGGTA, 0.671.

In the case of TGACACGTTGGA, the binding signal (log2 normalized fluorescence) came out at 0.728. To TGACGCAGAGTA belongs 0.0585. Regarding TGATCGAGTGTA, the binding signal (log2 normalized fluorescence) was -0.0449. To TAACAAGTCGTA belongs 0.0777; to TGAGCGTATGTA, 0.285; to TTACATGTGGAA, 0.696. To TGATAGTCGGTA belongs 0.0385; to TGATTCAATGTA, 0.176. With TGCCATGCGGTA the figure was 0.684.
